To fix the notation:
B1: CPEB3 Ribozyme (parent)
chain: UAACAGGGGGCCACAGCAGAAGCGUUCACGUCGCAGCCCCUGUCAGAUUCUGGUGAAUCUGCGAAUUCUGCUGUAUAUCUC

Read counts are not given, so values of variants with three or more changes are uncertain.

The variants in this series derive from B1. Put plainly: self-cleavage, relative activity (ratio to wild type); higher = more cleavage; in vitro, sequencing. The procedure, abridged:
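Libraries of CPEB3 self-cleaving ribozyme mutants came from rounds of error-prone PCR and carried barcodes, which DNA sequencing matched to variants. In vitro transcription used T7 RNA polymerase at 37°C for 5 hours, with a further 15 min in DNase I before EDTA stopped the reaction; the ribozymes cleaved during both steps. The RNA was reverse transcribed with template switching and sequenced on Illumina. Relative activity is the cleaved/total read fraction of a variant divided by that of the unmutated ribozyme, averaged over three batches with at least 5 reads.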
On to A13U C14A U43C G61A U69C, for which the self-cleavage came to 0.06. Take A13U A18U U51A G70A U72C: the self-cleavage was 0.22. For A13U A35G U60C U80A the value was 1.11; for A13G U54C A57G, 0.47; for A13U A20U U41C G46A U49C, 0.14. Regarding A13U A35U U72C, the self-cleavage was determined as 0.84.

Turning to A13U A20G U51C A57G U60C C62U A65G, the self-cleavage was 0.23.

Regarding A13U A15G A18U C39G U43C A56G, the self-cleavage stood at 0.05. For A13G U54C U69C U74A U80A the value was 0.54; for A13U A18U A35G A47U U48C, 0.12.

As for A13G U43C U54C A65G, the self-cleavage was determined as 0.24. The figure for A13G U48C A56G A64G U72C is 0.17; for A13U A15U U41A U54C A65G U67A it is 0.07; for A13U A18G A20G U31C A45U U67C U80C it is 0.05. The figure for A13U C40U U41A A47G A64G U74C is 0.16; for A13U A20G U26C A57G U69C it is 0.09. For the variant A13U A28G A45C A64G U76C U80C, the self-cleavage came out at 0.18.

Take A13U A18G A20U A35G A75G: the self-cleavage is 0.3. For A13U C14A A20G C27A C37U C38U U78C the value was 0.03; for A13U C38U U41A U60A, 0.08.

As for A13G U51A U80C, the self-cleavage stood at 0.96.

Regarding A13U A20G U26A A35U U51C U69A U78C, the self-cleavage came out at 0.05. For A13U A56G A65C U69A the value was 0.15; for A13U A18G A35G U54A C59A U67C, 0.51; for A13G U51A A64U, 0.23.

With A13U A45U U48C U49A A64G, the self-cleavage turned out to be 0.07. In the case of A13U A20G U26C U69C, the self-cleavage is 0.15. The figure for A13U A21G U48C U54A A56G A57U is 0.06; for A13U A20U U25C G33U U41C U51A it is 0.06. On to A13G U49C A65U, for which the self-cleavage was found to be 0.2. Take A13G U49A G70U A75C: the self-cleavage came out at 0.16. For A13U A15G A28G A56U U60A C68G the value was 0.15; for A13U A28C G46A A57G U72C U78C, 0.03. The figure for A13U C17U A45C A64G is 0.06. The figure for A13U A35U U58C is 0.15; for A13U C23U C71A it is 0.06; for A13U A18U A20U U41A U51C U60A A75U it is 0.1.

Turning to A13U A21G G24C C40A, the self-cleavage is 0.04.

With A13U A45G A77G, the self-cleavage is 0.81.

As to A13U A15U U25C A45G, the self-cleavage was found to be 0.22.

Turning to A13U A20C U48C A64U, the self-cleavage amounted to 0.17. The figure for A13G U51G U54C U80C is 1.09; for A13G U43C U54C C71G U74G it is 0.08; for A13U C23G U26C A35U A47G U60C A77G it is 0.04. The figure for A13U A15G U51A is 1.09; for A13U A15G G24A U25A U41C it is 0.38; for A13U A20G U51A U69G U72A it is 0.14. For A13U A15U U31A U54A G61A the value was 0.04; for A13U C38A U41A A75G, 0.13; for A13U A21G A75G, 0.39. Regarding A13U A15U C17U A20C U41C A45U U60C, the self-cleavage turned out to be 0.05. For A13G U43C U48A A77U the value was 0.18; for A13U A15C A45G, 0.59; for A13U A64G U67G, 0.23.

Turning to A13U A15U U80A, the self-cleavage worked out at 1. For A13G U43C A57U U67A the value was 0.09. The figure for A13G U67C A77U is 0.14; for A13U A21G A28C C38G A65G it is 0.07. The figure for A13G U48C U58C U80C is 0; for A13U A15G G24C G46U U54A A65G it is 0.08; for A13G U51C U72C U78C U80C it is 0.51. Take A13U A18U U54A U72C: the self-cleavage stood at 0.52. For A13U A21G U26A A57G U72A U80C the value was 0.12.

For the variant A13U A28U C29U, the self-cleavage came to 0.23. For A13G U48C G63C the value was 0.22.

A13U A21G C38U C50G: the self-cleavage amounted to 0.1. For A13U C14G U26G U41C U54A A56U U69C the value was 0.04. For A13U A20G A21G U26C the value was 0.06. For A13U A15G G30A G46U A56U U58C A64G the value was 0.1.

Turning to A13U A18G U43C A45G, the self-cleavage was found to be 0.33. The figure for A13U A15C U80A is 0.84; for A13U A15G U25A C27U it is 0.05. As for A13G U69C A75G, the self-cleavage came out at 0.14.

On to A13U C34U A35G U80A, for which the self-cleavage is 1.17.

With A13U A18G U54C A64G, the self-cleavage was 0.14. The figure for A13G U43C A45U G63A A64G is 0.22. Consider A13U C27A G46C U48C A64G, for which the self-cleavage turned out to be 0.15. For A13U A18U A47G the value was 0.33; for A13U A47G U76A U80A, 1.24. Take A13U C40U A75G: the self-cleavage worked out at 1.01. For A13U A57C C62G U80C the value was 0.43; for A13U A28G A64G U76C U80C, 0.84; for A13U A18G C68U, 0.47. For A13U C23U U54G the value was 0.39.
